In article PMC13086964, “USP7 deubiquitinase stabilizes FAN1 to support DNA crosslink repair and suppress CAG repeat expansion” (Nature Communications, 2026):
Results are given in words; binding and its absence hold for the method and conditions named. In cells and extracts the contact can be indirect. Some binding calls cover weakened binding; strength is not graded here. One block for each binder: values may come before it.

Protein sequences, listed by entry. Tags and fused reporters are not part of them.
UniProt Q93009: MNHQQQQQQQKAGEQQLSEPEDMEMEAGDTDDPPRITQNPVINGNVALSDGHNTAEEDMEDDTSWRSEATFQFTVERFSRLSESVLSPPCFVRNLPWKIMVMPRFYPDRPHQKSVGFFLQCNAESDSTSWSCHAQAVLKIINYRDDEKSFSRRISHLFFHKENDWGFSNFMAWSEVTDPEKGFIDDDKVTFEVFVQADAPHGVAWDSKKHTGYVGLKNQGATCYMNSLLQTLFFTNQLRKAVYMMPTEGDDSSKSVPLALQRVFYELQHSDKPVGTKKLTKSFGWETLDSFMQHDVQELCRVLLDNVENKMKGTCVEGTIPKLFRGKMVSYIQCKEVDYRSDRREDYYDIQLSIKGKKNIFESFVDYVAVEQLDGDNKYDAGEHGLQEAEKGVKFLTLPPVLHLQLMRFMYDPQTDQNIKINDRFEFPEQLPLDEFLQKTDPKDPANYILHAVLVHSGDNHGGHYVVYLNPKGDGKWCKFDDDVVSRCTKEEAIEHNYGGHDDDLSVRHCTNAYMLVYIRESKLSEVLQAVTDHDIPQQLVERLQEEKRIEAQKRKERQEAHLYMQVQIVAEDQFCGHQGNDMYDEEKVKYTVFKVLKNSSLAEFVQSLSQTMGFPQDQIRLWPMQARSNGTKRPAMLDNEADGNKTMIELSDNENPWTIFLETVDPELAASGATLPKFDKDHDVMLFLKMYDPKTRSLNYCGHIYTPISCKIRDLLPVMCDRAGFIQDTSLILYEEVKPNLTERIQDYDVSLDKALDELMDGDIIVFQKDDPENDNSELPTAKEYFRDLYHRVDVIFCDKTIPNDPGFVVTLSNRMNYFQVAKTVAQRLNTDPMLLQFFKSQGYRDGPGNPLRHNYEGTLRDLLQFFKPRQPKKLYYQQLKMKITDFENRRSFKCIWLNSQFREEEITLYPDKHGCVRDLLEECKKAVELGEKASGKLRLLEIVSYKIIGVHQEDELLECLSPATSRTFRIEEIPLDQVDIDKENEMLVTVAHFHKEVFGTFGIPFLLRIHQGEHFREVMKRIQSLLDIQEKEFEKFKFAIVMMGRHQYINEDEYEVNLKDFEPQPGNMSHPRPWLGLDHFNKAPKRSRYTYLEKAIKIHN
UniProt Q9Y2M0: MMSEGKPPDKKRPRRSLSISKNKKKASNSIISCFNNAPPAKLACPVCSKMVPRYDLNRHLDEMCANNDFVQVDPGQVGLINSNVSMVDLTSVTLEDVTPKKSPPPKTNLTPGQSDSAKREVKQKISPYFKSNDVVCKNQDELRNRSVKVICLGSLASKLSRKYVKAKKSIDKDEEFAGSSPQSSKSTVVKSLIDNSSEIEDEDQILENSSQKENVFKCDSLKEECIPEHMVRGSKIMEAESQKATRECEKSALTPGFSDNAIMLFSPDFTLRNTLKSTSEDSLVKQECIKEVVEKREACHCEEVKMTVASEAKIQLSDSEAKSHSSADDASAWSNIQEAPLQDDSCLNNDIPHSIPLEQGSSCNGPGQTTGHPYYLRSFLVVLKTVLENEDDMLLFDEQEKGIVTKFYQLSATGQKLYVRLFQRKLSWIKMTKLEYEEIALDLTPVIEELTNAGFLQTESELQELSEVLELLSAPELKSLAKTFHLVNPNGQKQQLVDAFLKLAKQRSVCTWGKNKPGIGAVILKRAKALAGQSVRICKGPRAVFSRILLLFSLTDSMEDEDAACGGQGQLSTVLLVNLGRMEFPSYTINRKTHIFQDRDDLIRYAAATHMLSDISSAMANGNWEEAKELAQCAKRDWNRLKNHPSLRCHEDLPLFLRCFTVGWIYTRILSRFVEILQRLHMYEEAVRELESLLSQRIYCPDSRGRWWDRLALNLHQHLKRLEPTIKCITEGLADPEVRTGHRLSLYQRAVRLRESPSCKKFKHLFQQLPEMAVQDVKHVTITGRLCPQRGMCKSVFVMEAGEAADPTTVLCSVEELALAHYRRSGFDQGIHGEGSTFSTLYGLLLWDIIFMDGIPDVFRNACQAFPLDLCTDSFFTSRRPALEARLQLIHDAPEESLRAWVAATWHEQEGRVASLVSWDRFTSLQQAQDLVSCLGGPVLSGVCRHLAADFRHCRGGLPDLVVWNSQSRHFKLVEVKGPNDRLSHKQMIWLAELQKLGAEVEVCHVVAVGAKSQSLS

Tests used:
[1] = biological target: FLAG-USP7 wt, full-length (human) (UniProt Q93009); test: co-IP; anti-FLAG M2 affinity resin on whole-cell extracts of HEK293, HEK293 eGFP-FAN1 (Dox-induced) or HEK293T cells transfected with FLAG-USP7 constructs; NP-40 buffer with 120 mM NaCl, Benzonase; 4 °C; immunoblotting
[2] = biological target: GFP-FAN1 wild-type (wt), full-length (human) (UniProt Q9Y2M0); test: co-IP; GFP-Trap agarose on whole-cell extracts (HEK293 eGFP-FAN1 cells induced with Dox, or HEK293 cells transfected with GFP-FAN1 constructs, with FLAG-USP7 in Fig. 1G); NP-40 buffer with 120 mM NaCl, Benzonase; 2 h or overnight, 4 °C; immunoblotting

- binding [1]: binds
B1: RNF169 (protein, UniProt Q8NCN4 1-708)
chain: MAAAGPSTRASSAAAAAALSRRGRRGRCDETAAAKTGAPGPASGPSLLVLSPPLLQPPLPPRPEESGCAGCLEPPGEAAALPCGHSLCRGCAQRAADAAGPGCPRCRARGPGWARRRARDDGQADSEVLGECARRSQPERCRPRRDGGAAAAGPRPEQEPRAAPAEPDFIFRAPIKLSKPGELREEYESLRKLREEKLQEEKPSEDQIHKLLPEDTETGKRKMDEQKKRDEPLVLKTNLERCPARLSDSENEEPSRGQMTQTHRSAFVSKNNSYSLAFLAGKLNSKVERSQSCSDTAQERAKSRVRAVPGNKAKVTTMTPASNPIIGVLLSTQNNRCVSAPDLTIEKRLPFSSLSSLASLHKPERSVSPESNDSISEELNHFKPIVCSPCTPPKRLPDGRVLSPLIIKSTPRNLNRSLQKQTSYEASPRILKKWEQIFQERQIKKTLSKATLTSLAPEMGEELLGSEGIHSSKEKPLVAVNTRLSGGQVLSEYTGPTSADLDHFPSVSQTKAEQDSDNKSSTEIPLETCCSSELKGGGSGTSLEREQFEGLGSTPDAKLDKTCISRAMKITTVNSVLPQNSVLGGVLKTKQQLKTLNHFDLTNGVLVESLSEEPLPSLRRGRKRHCKTKHLEQNGSLKKLRQTSGEVGLAPTDPVLREMEQKLQQEEEDRQLALQLQRMFDNERRTVSRRKGSVDQYLLRSSNMAGAK

- binding [2]: binds
B2: endogenous USP48 (HEK293 cells) (enzyme, UniProt Q86UV5 1-1035)
chain: MAPRLQLEKAAWRWAETVRPEEVSQEHIETAYRIWLEPCIRGVCRRNCKGNPNCLVGIGEHIWLGEIDENSFHNIDDPNCERRKKNSFVGLTNLGATCYVNTFLQVWFLNLELRQALYLCPSTCSDYMLGDGIQEEKDYEPQTICEHLQYLFALLQNSNRRYIDPSGFVKALGLDTGQQQDAQEFSKLFMSLLEDTLSKQKNPDVRNIVQQQFCGEYAYVTVCNQCGRESKLLSKFYELELNIQGHKQLTDCISEFLKEEKLEGDNRYFCENCQSKQNATRKIRLLSLPCTLNLQLMRFVFDRQTGHKKKLNTYIGFSEILDMEPYVEHKGGSYVYELSAVLIHRGVSAYSGHYIAHVKDPQSGEWYKFNDEDIEKMEGKKLQLGIEEDLAEPSKSQTRKPKCGKGTHCSRNAYMLVYRLQTQEKPNTTVQVPAFLQELVDRDNSKFEEWCIEMAEMRKQSVDKGKAKHEEVKELYQRLPAGAEPYEFVSLEWLQKWLDESTPTKPIDNHACLCSHDKLHPDKISIMKRISEYAADIFYSRYGGGPRLTVKALCKECVVERCRILRLKNQLNEDYKTVNNLLKAAVKGSDGFWVGKSSLRSWRQLALEQLDEQDGDAEQSNGKMNGSTLNKDESKEERKEEEELNFNEDILCPHGELCISENERRLVSKEAWSKLQQYFPKAPEFPSYKECCSQCKILEREGEENEALHKMIANEQKTSLPNLFQDKNRPCLSNWPEDTDVLYIVSQFFVEEWRKFVRKPTRCSPVSSVGNSALLCPHGGLMFTFASMTKEDSKLIALIWPSEWQMIQKLFVVDHVIKITRIEVGDVNPSETQYISEPKLCPECREGLLCQQQRDLREYTQATIYVHKVVDNKKVMKDSAPELNVSSSETEEDKEEAKPDGEKDPDFNQSNGGTKRQKISHQNYIAYQKQVIRRSMRHRKVRGEKALLVSANQTLKELKIQIMHAFSVAPFDQNLSIDGKILSDDCATLGTLGVIPESVILLKADEPIADYAAMDDVMQVCMPEEGFKGTGLLGH
